# Source: PubChem BioAssay AID588579 (National Center for Advancing Translational Sciences (NCATS), 2011)
# Values joined by “and” are separate entries in the source; they are usually repeats but may differ in a detail not shown here. Equal entries are not always repeated. Among all 400,000 compounds or so, about 2,200 (0.55%) were called active. The shares of active, inactive and inconclusive entries below differ from those in the screen. Calls come from the whole dose curve; as a rule, active = well fitted inhibition curve with a large enough effect; inconclusive = small, poorly fitted or top-dose-only effect, or another doubt; inactive = no such curve, though single readings can be large or run the other way. Potencies beside an inconclusive call are fits to weak or partial responses and may not hold up.
# Target: DNA polymerase kappa (Homo sapiens) (UniProt Q9UBT6)
# Chain of UniProt Q9UBT6 (Q9UBT6 whole entry, looked up): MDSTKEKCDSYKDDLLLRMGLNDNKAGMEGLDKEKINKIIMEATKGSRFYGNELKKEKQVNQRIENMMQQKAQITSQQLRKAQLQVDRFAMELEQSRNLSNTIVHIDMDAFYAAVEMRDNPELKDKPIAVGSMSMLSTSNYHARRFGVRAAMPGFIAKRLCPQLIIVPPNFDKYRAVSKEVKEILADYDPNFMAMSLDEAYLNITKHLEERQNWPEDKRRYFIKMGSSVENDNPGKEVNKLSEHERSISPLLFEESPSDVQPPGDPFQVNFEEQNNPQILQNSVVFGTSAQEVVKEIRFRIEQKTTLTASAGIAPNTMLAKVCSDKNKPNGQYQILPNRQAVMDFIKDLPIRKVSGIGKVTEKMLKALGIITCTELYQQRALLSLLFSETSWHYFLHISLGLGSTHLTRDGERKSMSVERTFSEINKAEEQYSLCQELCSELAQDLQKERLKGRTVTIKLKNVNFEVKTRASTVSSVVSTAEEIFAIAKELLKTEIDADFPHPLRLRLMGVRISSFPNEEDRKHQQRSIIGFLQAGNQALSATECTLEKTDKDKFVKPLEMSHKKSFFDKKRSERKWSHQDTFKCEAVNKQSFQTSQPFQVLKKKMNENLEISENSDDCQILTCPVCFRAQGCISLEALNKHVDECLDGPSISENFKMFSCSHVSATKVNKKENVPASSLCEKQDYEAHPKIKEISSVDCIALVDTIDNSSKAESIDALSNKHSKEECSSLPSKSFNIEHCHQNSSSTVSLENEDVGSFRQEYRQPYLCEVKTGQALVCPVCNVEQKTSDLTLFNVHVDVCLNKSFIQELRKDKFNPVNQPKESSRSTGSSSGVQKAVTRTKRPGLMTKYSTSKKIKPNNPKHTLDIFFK
# Assay: qHTS for Inhibitors of Polymerase Kappa
# Details: purified Pol kappa, fluorescent DNA synthesis assay, 10 min; series mostly up to 107 µM
# Method in brief: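 Activity was followed as the change in fluorescence between reads at 0 and 10 min after starting the reaction with 50 nM substrate. Beforehand, 10 nM polymerase had been preincubated with compound for 15 min at room temperature.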
# % is set by controls: 0 for no effect and ±100 for the full control effect; potency is the fitted concentration of half-maximal effect; tags give direction and shape of the fitted curve.
SMILES,Potency,"activity, negative = inhibition"
COP(=S)(OC)Oc1ccc([N+](=O)[O-])cc1,inactive,–
O=C(O)COc1ccc(Br)cc1C(c1c(C(=O)O)[nH]c2ccccc12)c1c(C(=O)O)[nH]c2ccccc12,"inconclusive: 89.1 µM [inhibitor, single point]",–
CCOC(=O)C1=C(C)c2ccccc2OC1(C(=O)OCC)c1ccccc1 (configuration not stated),"inconclusive: 56.2 µM [inhibitor, partial curve, poor fit]",–
O=C1NC(=O)c2c1c1c3ccccc3[nH]c1c1[nH]c3ccccc3c21,"inconclusive: 31.6 µM [inhibitor, partial curve, poor fit]",–
N#C/C(=C/c1ccc(O)c(O)c1)C(N)=S,active: 1.68 µM,–
Cn1cccc1/C=C1\C(=O)NC(=O)N(Cc2ccccc2Cl)C1=O,active: 31.6 µM,–
NC(=S)/N=C/c1c(O)[nH]c(=O)[nH]c1=O,"inconclusive: 79.4 µM [inhibitor, partial curve]",–
O=C1NC(=O)N(c2ccc(Cl)cc2)C(=O)/C1=C\c1ccc(Sc2nc3ccccc3[nH]2)o1,active: 20 µM,–
CC(=O)N1CCN(c2ccc(OC[C@H]3CO[C@](Cn4ccnc4)(c4ccc(Cl)cc4Cl)O3)cc2)CC1,"inconclusive: 44.7 µM [inhibitor, partial curve, poor fit]",–
CO/C1=C\C(C)=C\[C@@H](C)[C@@H](O)[C@@H](C)C/C(C)=C/C=C/[C@H](OC)[C@@H]([C@@H](C)[C@@H](O)[C@H](C)[C@@]2(O)C[C@@H](O)[C@H](C)C(C(C)C)O2)OC1=O (some centres not stated),"inconclusive: 1.68 µM [inhibitor, full curve, poor fit]",–
CCCCC/C=C\C/C=C\C/C=C\C/C=C\CCCC(=O)N(Cc1ccc(O)c(Cl)c1)Cc1ccc(O)c(Cl)c1,"inconclusive: 35.5 µM [inhibitor, single point]",–
CC(C)C1C(=O)N2CCCC2[C@]2(O)O[C@@](NC(=O)[C@@H]3C=C4c5cccc6[nH]cc(c56)C[C@H]4N(C)C3)(C(C)C)C(=O)N12 (some centres not stated),"inconclusive: 7.08 µM [inhibitor, partial curve]",–
COc1ccc(OCC(=O)N2CCN(Cc3cccc(OC)c3OC)CC2)cc1,inactive,–
C[C@]12Cc3cn4c(nc3C=C1CCC1C2CC[C@@]2(C)[C@H]1CC[C@@]2(O)C#N)nc1ccccc14 (some centres not stated),"inconclusive: 33.6 µM [inhibitor, partial curve, poor fit]",–
COC(=O)C1=C(C)NC(C)=C(C(=O)NCCCN2CCC(c3ccccc3)(c3ccccc3)CC2)C1c1ccc([N+](=O)[O-])cc1 (configuration not stated),"inconclusive: 26.7 µM [inhibitor, single point]",–
Cc1c(C(=O)O)cccc1-n1c(C)cc(/C=C2\C(=O)NC(=O)N(c3ccc4c(c3)OCO4)C2=O)c1C,active: 44.7 µM,–
O=C(/C=C/c1ccccc1)NC(NC(=S)Nc1cccc2cccnc12)C(Cl)(Cl)Cl (configuration not stated),"inconclusive: 35.5 µM [inhibitor, single point]",–
O=C(N/N=C/c1c(O)n(Cc2ccco2)c(=O)[nH]c1=O)c1ccccc1O,active: 79.4 µM,–
CC[C@]1(O)CC(O[C@@H]2CC(N(C)C)C(O)C(C)O2)c2c(cc3c(c2O)C(=O)c2c(O)ccc(O)c2C3=O)C1C(=O)OC (some centres not stated),"inconclusive: 28.2 µM [inhibitor, partial curve]",–

SMILES,Potency,"activity, negative = inhibition"
COC(=O)c1nc(-c2ccc3c(n2)C(=O)C(N)=C(OC)C3=O)c(N)c(-c2ccc(OC)c(OC)c2O)c1C,"inconclusive: 56.2 µM [inhibitor, partial curve, poor fit]",–
CC[C@]1(O)CC(O[C@@H]2CC(N(C)C)C(O)C(C)O2)c2c(cc3c(c2O)C(=O)c2c(O)cccc2C3=O)C1C(=O)OC (some centres not stated),active: 6.31 µM,–
CCOc1cccc(=NC2CCCCC2)c2c(C)[nH]c(C)c12,"inconclusive: 89.1 µM [inhibitor, partial curve, poor fit]",–
C[n+]1c2cc(N)ccc2cc2ccc(N)cc21,active: 8.91 µM and active: 22.4 µM,–
O=C1NC(=O)N(c2ccccc2)C(=O)/C1=C/c1ccc(Sc2ccccc2)o1,"inconclusive: 89.1 µM [inhibitor, single point]",–
O=C(O)c1cc(Oc2ccc(C(F)(F)F)cc2Cl)ccc1[N+](=O)[O-],"inconclusive: 26.7 µM [inhibitor, single point]",–
COc1ccc(N2C(=O)/C(=C/c3ccco3)C(=O)NC2=S)cc1,active: 4.47 µM,–
COC(=O)C1=C(c2ccc(C(C)=O)cc2)C[C@@H]2CC[C@H]1N2C(=O)NCc1ccco1,"inconclusive: 89.1 µM [inhibitor, partial curve, poor fit]",–
CCOc1ccc(N2C(=O)/C(=C/c3ccco3)C(=O)NC2=S)cc1,active: 1.58 µM,–
Cc1ccc(-n2c(O)c(C=NCc3ccco3)c(=O)[nH]c2=S)cc1C,active: 39.8 µM,–
O=c1cc(-c2ccc(O)cc2)oc2c(C3O[C@H](CO)[C@@H](O)[C@H](O)[C@H]3O)c(O)cc(O)c12 (some centres not stated),"inconclusive: 79.4 µM [inhibitor, partial curve, poor fit]",–
CCOC(=O)c1c(-n2c(C)cc(C=C3C(=O)NC(=S)NC3=O)c2C)sc2c1CCCC2,"inconclusive: 89.1 µM [inhibitor, partial curve, poor fit]",–
O=C1NC(=O)N(Cc2ccc(F)cc2)C(=O)/C1=C\c1ccoc1,active: 25.1 µM,–
O=C(O)C1C(C(=O)O)C2(Cl)C(Cl)=C(Cl)C1(Cl)C2(Cl)Cl (configuration not stated),active: 79.4 µM,–
Cc1cccc(-n2c(O)c(/C=C/C=Nc3ccccc3)c(=O)[nH]c2=O)c1,inactive,–
CC(=O)OC1CC(OC(C)=O)[C@]2(C)C(CC(OC(C)=O)[C@]3(C)C2CC[C@@]2(C)C(c4ccoc4)C[C@H]4O[C@]432)C1(C)C (some centres not stated),"inconclusive: 12.6 µM [inhibitor, partial curve, poor fit]",–
O=C(c1ccc2nc(-c3ccco3)c(-c3ccco3)nc2c1)N1CCC2(CC1)OCCO2,"inconclusive: 79.4 µM [inhibitor, partial curve]",–
C=CCn1c(O)c(N=Nc2c(C)n(C)n(-c3ccccc3)c2=O)c(=O)[nH]c1=S,inactive,–
O=c1ccc2c(O)c3ccoc3cc2o1,"inconclusive: 20 µM [inhibitor, partial curve]",–

SMILES,Potency,"activity, negative = inhibition"
C/C(=N\NC(=O)c1ccccc1)c1c(O)n(Cc2ccccc2)c(=O)[nH]c1=O,inactive,–
O=C1NC(=S)SC1=Cc1ccc(N(CCCl)CCCl)cc1,"inconclusive: 89.1 µM [inhibitor, single point]",–
CCN1C[C@@]2(COC(=O)c3ccccc3N3C(=O)CC(C)C3=O)CC[C@H](OC)[C@]34C5C[C@@H]6[C@@H](OC)C[C@@](O)(C5[C@H]6OC)[C@@](O)(C13)[C@@H](OC)C24 (some centres not stated),–,inactive: -4.79% [at 19.4 µM]
CCCCCC(O)C1C(=O)OC(C)C(O)\C=C/C=C\C=C/C=C\C=C(\C)C(O)C(O)C(O)CC(O)CC(O)CC(O)CC(O)CC1O (configuration not stated),"inconclusive: 17.8 µM [inhibitor, single point]",–
COc1cc(/C=C/c2nc3ccccc3c(=O)n2-c2cccc(O)c2)ccc1O,"inconclusive: 89.1 µM [inhibitor, single point]",–
CCCCC(=O)N/N=C/c1c(O)n(CCc2ccc(OC)c(OC)c2)c(=O)[nH]c1=O,inactive,–
Cc1ccccc1-n1c(C)cc(/C=C2/C(=O)NC(=O)N(Cc3ccco3)C2=O)c1C,"inconclusive: 89.1 µM [inhibitor, partial curve, poor fit]",–
NCC(O)c1cc(O)c(O)cc1F (configuration not stated),"inconclusive: 39.8 µM [inhibitor, partial curve, poor fit] and inconclusive: 23.8 µM [inhibitor, single point]",–
CC(C)(O/N=C(\C(=O)N[C@@H]1C(=O)N2C(C(=O)[O-])=C(C[n+]3ccccc3)CS[C@@H]12)c1csc(N)n1)C(=O)O,"inconclusive: 5.97 µM [inhibitor, single point]",–
COc1ccc(Cn2c(N)c(C(=O)NCc3ccco3)c3nc4ccccc4nc32)cc1,inactive,–
CCCCCCCCCCCCCC(=O)O[C@@H]1[C@@H](C)[C@@]2(O)[C@@H](C=C(CO)C[C@]3(O)C(=O)C(C)=C[C@@H]23)[C@@H]2C(C)(C)[C@]12OC(C)=O,"inconclusive: 39.8 µM [inhibitor, partial curve, poor fit]",–
O=C(c1ccncc1)N1CCC[C@@]2(CCN(Cc3nccs3)C2)C1,inactive,–
O=C1CC(=O)N(Cc2ccccc2)C(=O)N1CCCCCCN1C(=O)CC(=O)N(Cc2ccccc2)C1=O,active: 22.4 µM,–
COC1=C(C)C(=O)c2c(c(COC(N)=O)c3n2C[C@@H]2[C@@H]3N2C)C1=O (some centres not stated),"inconclusive: 89.1 µM [inhibitor, partial curve, poor fit]",–
Cl.Cl.Cl.Cl.Cl.Cl.N.N.N.N.NNNNN.NNNNN.O.O.[Ru].[Ru].[Ru],"inconclusive: 12.6 µM [inhibitor, partial curve]",–
Cc1cccc(N2C(=O)NC(=O)/C(=C/c3ccc([N+](=O)[O-])o3)C2=O)c1,active: 8.91 µM,–
O=C(N/N=C/c1c(O)n(Cc2ccco2)c(=O)[nH]c1=O)c1ccccc1,"inconclusive: 89.1 µM [inhibitor, single point]",–
Cc1cc(I)ccc1Nc1c(C(=O)NOCC2CC2)cc(F)c(F)c1F,"inconclusive: 37.7 µM [inhibitor, single point]",–
Cc1ccc(N2C(=O)NC(=O)/C(=C\C=C\c3ccco3)C2=O)cc1C,active: 25.1 µM,–
